# In PubChem BioAssay AID485294 (National Center for Advancing Translational Sciences (NCATS), 2010):
# About 150 (0.041%) of roughly 370,000 compounds were called active. The shares of active, inactive and inconclusive entries below differ from those in the screen. Calls come from the whole dose curve; as a rule, active = well fitted inhibition curve with a large enough effect; inconclusive = small, poorly fitted or top-dose-only effect; inactive = flat fitted curve, though single readings scatter. Potencies of inconclusive entries are left out as doubtful fits.
# Molecular target: Beta-lactamase (Escherichia coli (strain K12)) (UniProt P00811)
# Assay: qHTS Inhibitors of AmpC Beta-Lactamase (assay with detergent); note: nearly all actives have a fitted effect of over 25% in size
# Conditions: AmpC hydrolysis of nitrocefin, absorbance 480 nm, 0.01% Triton; series mostly up to 114 µM
# Method in brief: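 AmpC (5.3 nM in the dispensed reagent) in 20 mM phosphate pH 7.0 with 0.01% (detergent screen) or 0.0001% Triton X-100 was preincubated with compounds for 15 min at room temperature. Nitrocefin was then added from an 800 uM solution, and hydrolysis was followed at 480 nm.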
# Potency is the fitted concentration of half-maximal effect; tags give direction and shape of the fitted curve.
# UniProt P00811, sequence (P00811 whole entry, looked up): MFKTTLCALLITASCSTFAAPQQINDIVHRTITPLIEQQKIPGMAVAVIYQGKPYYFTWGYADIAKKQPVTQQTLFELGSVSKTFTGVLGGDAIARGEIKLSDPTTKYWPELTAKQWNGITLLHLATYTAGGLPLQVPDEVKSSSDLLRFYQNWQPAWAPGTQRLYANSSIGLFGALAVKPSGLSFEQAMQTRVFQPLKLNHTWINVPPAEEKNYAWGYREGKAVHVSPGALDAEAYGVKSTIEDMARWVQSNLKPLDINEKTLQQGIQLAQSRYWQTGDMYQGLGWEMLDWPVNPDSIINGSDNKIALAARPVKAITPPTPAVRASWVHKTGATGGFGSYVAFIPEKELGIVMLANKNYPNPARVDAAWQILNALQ
row,SMILES,Potency
1,O=C(CCS(=O)(=O)c1ccc(Cl)cc1)Nc1nnc(-c2ccco2)o1,"inconclusive [inhibitor, full curve, poor fit]"
2,O=C(CNCc1ccc(Cl)cc1)N1CCc2ccccc2C1,"inconclusive [inhibitor, full curve, poor fit]"
3,Oc1cccc2nc3ccccc3nc12,inactive
4,COc1ccc(C2SCCN2S(=O)(=O)c2ccc(F)cc2)cc1OC (stereo not given),"inconclusive [inhibitor, full curve, poor fit]"
5,O=C(NC1CC1)C1=C[C@H](c2csc3ccccc23)C[C@H](OCCCCO)O1,inactive
6,CCCCc1ccc(NC(=S)Nc2ccc(Nc3ccc(OC)cc3)cc2)cc1,inactive
7,Cc1ccccc1CN1C(=O)c2ccccc2S(=O)c2ccc(C(=O)NC3CCC(C)CC3)cc21 (stereo not given),inactive
8,O=C(COC(=O)C1CCCCC1)Nc1cc([N+](=O)[O-])ccc1F,inactive
9,COc1ccc(CCNC(=O)CCC(=O)n2ncc3cc(C)ccc32)cc1OC,"inconclusive [inhibitor, full curve]"
10,CCNC(=O)CSc1nc2ccccc2c(=O)n1OC,"inconclusive [inhibitor, partial curve, poor fit]"
11,O=C(OCC(=O)c1ccc(Cl)s1)c1ccc2ccccc2n1,"inconclusive [inhibitor, partial curve, poor fit]"
12,CC1=NNC(=O)/C1=C\c1cn(-c2ccccc2)nc1-c1ccc(F)cc1,inactive
13,Cc1ccccc1-n1nnnc1SCC(=O)Nc1ccc(N2CCN(C)CC2)cc1,"inconclusive [inhibitor, single point]"
14,COc1ccccc1CN1CCCC(CN(CCN(C)C)C(=O)c2ccc(C)cc2)C1 (stereo not given),"inconclusive [inhibitor, full curve, poor fit]"
15,c1ccc(-c2nc(NCCCN3CCOCC3)c3ccccc3n2)cc1,"inconclusive [inhibitor, partial curve]"
16,CC(=O)Nc1ccc(S(=O)(=O)N(C)C2CCN(C)CC2)cc1,"inconclusive [inhibitor, full curve, poor fit]"
17,CCCCn1c(SC(C)C(=O)c2ccc(OC)cc2)nc2cc(S(N)(=O)=O)ccc21 (stereo not given),"inconclusive [inhibitor, partial curve]"
18,COC(=O)[C@@]1(Cc2ccc(F)cc2)[C@@H]2[C@@H](CC(=O)[C@H]2CC(=O)C(=O)N(C)C)CN1C(=O)c1ccccc1,"inconclusive [inhibitor, partial curve]"
19,Cc1cccc(N=Nc2cn[nH]c2-c2ccco2)c1,"inconclusive [inhibitor, full curve]"
20,CC(OC(=O)Cc1ccsc1)C(=O)Nc1ccc(Cl)cn1 (stereo not given),"inconclusive [inhibitor, full curve, poor fit]"
21,COc1ccc(C(NC(=O)C(C)C)c2ccc3cccnc3c2O)cc1 (stereo not given),inactive
22,Cc1oc2cc3oc(=O)c(CC(=O)NCC(=O)N[C@@H](C(=O)O)c4ccccc4)c(C)c3cc2c1C,"inconclusive [inhibitor, full curve, poor fit]"

row,SMILES,Potency
1,NC(=O)CSc1nnc(Cn2c(=O)sc3ccccc32)n1CCc1ccccc1,"inconclusive [inhibitor, full curve, poor fit]"
2,O=C(/C=C/c1ccc(O)c(O)c1)c1ccc(S(=O)(=O)N2CCCCCC2)cc1,"inconclusive [inhibitor, full curve]"
3,Clc1ccc(/C=N/Nc2ncnc3ccccc23)cc1Cl,inactive
4,CCOC(=O)c1c(NC(=O)CSc2nc3ccccc3o2)sc(C)c1C,"inconclusive [inhibitor, single point]"
5,O=C(COc1ccc(S(=O)(=O)N2CCOCC2)cc1)NC1CCCC1,"inconclusive [inhibitor, partial curve, poor fit]"
6,CC1=NN(C(=O)c2csc(C(C)C)c2)C(O)(C(F)(F)F)C1 (stereo not given),"inconclusive [inhibitor, full curve, poor fit]"
7,Cc1nn(C)cc1/C=N\NC(=O)c1ccc(Cn2cc(Cl)cn2)cc1,"inconclusive [inhibitor, full curve]"
8,O=c1[nH]c(CN2CCN(S(=O)(=O)c3ccc(Cl)cc3)CC2)nc2cc(Cl)ccc12,"inconclusive [inhibitor, full curve]"
9,Cn1c2ccccc2c(=O)c2ccc(C#Cc3ccccn3)cc21,"inconclusive [inhibitor, full curve]"
10,O=c1c2cnn(-c3ccccc3)c2ncn1Cc1ccccc1,"inconclusive [inhibitor, single point]"
11,COCc1cc(C(C)=O)ccc1OC,"inconclusive [inhibitor, single point]"
12,O=C(O)C1C2CCC(C2)C1C(=O)Nc1nc2ccccc2s1 (stereo not given),"inconclusive [inhibitor, single point]"
13,COc1cccc(-c2nc(-c3ccccc3)no2)c1,"inconclusive [inhibitor, full curve]"
14,Cc1cc(Sc2nc(NC(C)(C)C)nc(N3CCOCC3)n2)nc(Cl)n1,"inconclusive [inhibitor, full curve, poor fit]"
15,Cc1ccc(NC(=O)N2CCCC2C(=O)NCc2cccs2)cc1 (stereo not given),"inconclusive [inhibitor, partial curve, poor fit]"
16,COc1ccc2c(c1OC)C(=O)N1C2SC(C)(C)[C@H]1C(=O)NC1CC1 (stereo not given in full),"inconclusive [inhibitor, full curve, poor fit]"
17,N#Cc1cc(Oc2ccccc2)c(-n2nnc3ccccc32)cc1C#N,"inconclusive [inhibitor, partial curve, poor fit]"
18,Cc1nc(C)c(-c2ccc(SCC(=O)Nc3cccc(Cl)c3)nn2)s1,inactive
19,COc1ccc(C(=O)N2CCC(C(=O)Nc3ccc4c(c3)OCCO4)CC2)cc1,"inconclusive [inhibitor, full curve, poor fit]"
20,CCOC(=O)C1CCCN(c2c(Nc3cc(C)cc(C)c3)c(=O)c2=O)C1 (stereo not given),"inconclusive [inhibitor, partial curve, poor fit]"
21,O=C(CCc1nnc2ccc(NCc3ccco3)nn12)N1CCN(c2ccccc2)CC1,"inconclusive [inhibitor, full curve, poor fit]"
22,COc1ccccc1C(=O)Nc1ccc(N2CCN(S(C)(=O)=O)CC2)cc1,inactive

row,SMILES,Potency
1,COc1ccc(CCNC(=O)c2cc(S(=O)(=O)N3CCCCC3)ccc2Cl)cc1,"inconclusive [inhibitor, single point]"
2,Cc1oc(C)c2c(=O)cc(-c3ccc4c(c3)OCO4)cc(OC(=O)c3cccc(Br)c3)c12,inactive
3,Cc1cc(CN(C)C(=O)c2cc(COc3ccc(F)cc3Cl)on2)n[nH]1,inactive
4,COc1ccc(Nc2cc(C(=O)NCCCN3CCN(c4ccc(OC)cc4)CC3)c3ccccc3n2)cc1,inactive
5,CCCSc1nnc(-c2cccc(S(=O)(=O)N(C)C)c2)n1-c1cc(OC)ccc1OC,"inconclusive [inhibitor, full curve]"
6,S=c1nc(-c2ccccc2Cl)[nH][nH]1,"inconclusive [inhibitor, single point]"
7,CC(=O)c1cccc(NC(=O)NNC(=O)c2ccc3ccccc3c2)c1,inactive
8,c1ccc(-c2csc(N3CCSCC3)n2)cc1,"inconclusive [inhibitor, partial curve, poor fit]"
9,CCC1(c2ccccc2)NC(=O)N(CC(=O)Nc2cc(S(=O)(=O)N3CCCCC3)ccc2N(C)C)C1=O (stereo not given),"inconclusive [inhibitor, partial curve, poor fit]"
10,Cc1ccc(-c2nc3cccnc3s2)cc1NC(=O)C1c2ccccc2Oc2ccccc21,inactive
11,CN(c1ccccc1)S(=O)(=O)c1ccc(NC(=O)c2cc(=O)c3ccccc3o2)cc1,inactive
12,Cc1nc(C)c(C(=O)Nc2cccc(C)c2C)o1,"inconclusive [inhibitor, full curve, poor fit]"
13,CNC(=O)C1CC(=O)N(c2ccc(OCC(=O)NCc3ccccc3)cc2)C1 (stereo not given),"inconclusive [inhibitor, full curve, poor fit]"
14,COc1cccc(/C=C2\SC(=S)N(CCC(=O)Nc3ccc(O)cc3)C2=O)c1,"inconclusive [inhibitor, full curve, poor fit]"
15,O=C(O)c1cc(-c2ccco2)nn1-c1ccc(Cl)cc1,inactive
16,CCOc1ccc(OCC)c(S(=O)(=O)NCc2ccc3c(c2)OCO3)c1,"inconclusive [inhibitor, partial curve, poor fit]"
17,Oc1cccc2cnccc12,"inconclusive [inhibitor, single point]"
18,COC(=O)C1=C(C)NC(C)=C(C(=O)OC)C1C(=O)OC(C)C(=O)c1ccccc1 (stereo not given),"inconclusive [inhibitor, full curve, poor fit]"
19,CCCCc1nnc(NC(=O)c2ccc3c(=O)n4c(nc3c2)CCC4)s1,"inconclusive [inhibitor, full curve, poor fit]"
20,COc1cccc(CCNC(=O)COc2cccc3c2OC(C)(C)C3)c1,"inconclusive [inhibitor, full curve, poor fit]"
21,O=[N+]([O-])c1ccc(Cl)c(/C=N/n2c(C3CCCCC3)n[nH]c2=S)c1,"inconclusive [inhibitor, single point]"
